We go through 24 molecules from patent US20260137703A1, “2-AMINO-PYRIDO[2,3-D]PYRIMIDIN-7(8H)-ONE AND 7-AMINO-1-PYRIMIDO[4,5-D]PYRIMIDIN-2(1 H)-ONE DERIVATIVES AS EGFR INHIBITORS FOR THE TREATMENT OF CANCER” (Cancer Research Technology Limited, priority 2022, published 2026).

pIC50: −log10 of the molar value. Some results are limits rather than exact numbers.

The assay deals with CtermHisTag-mEGFR Triple Mutant (R797S, L858R, T790M) (Homo sapiens, UniProt P00533, C797S/L858R/T790M). Description: TR-FRET probe displacement, EGFR triple mutant. The settings on record: 1.25 nM EGFR, 100 nM probe, 30 mins room temperature. In general terms: In TR-FRET formats the signal depends on donor and acceptor labels being close together.
The molecule `C=Cc1c(-c2ccccc2Cl)c(=O)n(C)c2nc(N)ncc12` [Example 173, 2-amino-6-(2-chlorophenyl)-5-ethenyl-8-methylpyrido[2,3-d]pyrimidin-7-one] showed a pIC50 of 4.30 to 6.00. With `C=Cc1c(-c2ccccc2Cl)c(=O)n(C)c2nc(NCCCCN3CCN(C)CC3)ncc12` [Example 174, 6-(2-chlorophenyl)-8-methyl-2-((4-(4-methylpiperazin-1-yl)butyl)amino)-5-vinylpyrido[2,3-d]pyrimidin-7(8H)-one] the figure was 4.30 to 6.00. With `C#Cc1c(C)c(=O)n(Cc2cnoc2)c2nc(Nc3ccc(N4CCN(C)CC4)cc3)ncc12` [Example 175, 5-Ethynyl-6-methyl-2-{[4-(4-methylpiperazin-1-yl)phenyl]aminol}-8-(1,2-oxazol-4-ylmethyl)pyrido[2,3-d]pyrimidin-7-one] the figure was 6.00 to 7.00; with `C#Cc1c(C)c(=O)n(Cc2cnco2)c2nc(Nc3ccc(N4CCN(C)CC4)cc3)ncc12` [Example 176, 5-Ethynyl-6-methvl-2-{[4-(4-methylpiperazin-1-yl)phenyl]aminol}-8-(1,3-oxazol-5-ylmethyl)pyrido[2,3-d]pyrimidin-7-one], 6.00 to 7.00. With `C#Cc1c(C)c(=O)n(Cc2ncc[nH]2)c2nc(Nc3ccc(N4CCN(C)CC4)cc3)ncc12` [Example 177, 5-Ethynyl-8-(1H-imidazol-2-ylmethyl)-6-methyl-2-{[4-(4-methylpiperazin-1-yl)phenyl]amino}pyrido[2,3-d]pyrimidin-7-one] the figure was 6.00 to 7.00. Consider `C#Cc1c(C)c(=O)n(Cc2ccccn2)c2nc(Nc3ccc(N4CCN(C)CC4)cc3)ncc12` [Example 178, 5-Ethynyl-6-methyl-2-{[4-(4-methylpiperazin-1-yl)phenyl]amino}-8-(pyridin-2-ylmethyl)pyrido[2,3-d]pyrimidin-7-one], for which the pIC50 was 7.00 to 7.70. With `C#Cc1c(C)c(=O)n(Cc2ccncc2)c2nc(Nc3ccc(N4CCN(C)CC4)cc3)ncc12` [Example 179, 5-Ethynyl-6-methyl-2-{[4-(4-methylpiperazin-1-yl)phenyl]amino}-8-(pyridin-4-ylmethyl)pyrido[2,3-d]pyrimidin-7-one] the figure was 7.00 to 7.70; with `C#Cc1c(C)c(=O)n(Cc2cnn(C)c2)c2nc(Nc3ccc(N4CCN(C)CC4)cc3)ncc12` [Example 180, 5-Ethynyl-6-methyl-2-{[4-(4-methylpiperazin-1-yl)phenyl]aminol}-8-[(1-methylpyrazol-4-yl)methyl]pyrido[2,3-d]pyrimidin-7-one], 6.00 to 7.00; with `C#Cc1cc(=O)n(C2CCCC2)c2nc(Nc3cccc(CN4CC(CS(C)(=O)=O)C4)c3)ncc12` [Example 181], 6.00 to 7.00.

With `C#Cc1cc(=O)n(C2CCCC2)c2nc(Nc3cccc(CN4CCC(CS(C)(=O)=O)C4)c3)ncc12` (stereo not drawn) [Example 182], the pIC50 was 6.00 to 7.00. With `C#Cc1cc(=O)n(C2CCCC2)c2nc(Nc3cccc(CN4CCC(CS(C)(=O)=O)CC4)c3)ncc12` [Example 183] the figure was 6.00 to 7.00; with `C#Cc1cc(=O)n(C2CCCC2)c2nc(Nc3cccc4c3CN(C)C4)ncc12` [Example 184, 8-Cyclopentyl-5-ethynyl-2-[(2-methvl-1,3-dihydroisoindol-4-yl)amino]pyrido[2,3-d]pyrimidin-7-one], 4.30 to 6.00; with `C#Cc1cc(=O)n(C2CCCC2)c2nc(Nc3cccc4c3CCN(C)C4)ncc12` [Example 185, 8-Cyclopentyl-5-ethynyl-2-[(2-methyl-3,4-dihydro-1H-isoquinolin-5-yl)amino]pyrido[2,3-d]pyrimidin-7-one], 4.30 to 6.00. Regarding `C#Cc1cc(=O)n2c3nc(ncc13)Nc1cccc(c1)OCCC2` [Example 186, 1^5-ethynyl-1^7,1^8-dihydro-4-oxa-2-aza-1(2,8)-pyrido[2,3-d]pyrimidina-3(1,3)-benzenacycloheptaphan-1^7-one], the pIC50 is 4.30 to 6.00. With `C#Cc1cc(=O)n2c3nc(ncc13)Nc1cccc(c1)OC/C=C\C2` [Example 187, (Z)-1^5-ethynyl-1^7,1^8-dihydro-4-oxa-2-aza-1(2,8)-pyrido[2,3-d]pyrimidina-3(1,3)-benzenacyclooctaphan-6-en-1^7-one] the figure was 7.00 to 7.70; with `C#Cc1cc(=O)n2c3nc(ncc13)Nc1ccc(N3CCN(C)CC3)c(c1)OC/C=C\C2` [Example 188, (Z)-1^5-ethynyl-3^4-(4-methylpiperazin-1-yl)-1^7,1^8-dihydro-4-oxa-2-aza-1(2,8)-pyrido[2,3-d]pyrimidina-3(1,3)-benzenacyclooctaphan-6-en-1^7-one], over 7.70. In turn, `C#Cc1cc(=O)n2c3nc(ncc13)Nc1ccc(N3CCN(C)CC3)c(c1)OCCCC2` [Example 189, 1^5-ethynyl-3^4-(4-methylpiperazin-1-yl)-1^7,1^8-dihydro-4-oxa-2-aza-1(2,8)-pyrido[2,3-d]pyrimidina-3(1,3)-benzenacyclooctaphan-1^7-one] had a pIC50 of over 7.70. With `C#Cc1c(C)c(=O)n2c3nc(ncc13)Nc1cccc(c1)OC/C=C\C2` [Example 190, (Z)-1^5-ethynyl-1^6-methyl-1^7,1^8-dihydro-4-oxa-2-aza-1(2,8)-pyrido[2,3-d]pyrimidina-3(1,3)-benzenacyclooctaphan-6-en-1^7-one] the figure was 6.00 to 7.00; with `C#Cc1c(C)c(=O)n2c3nc(ncc13)Nc1cccc(c1)OCCCC2` [Example 191, 1^5-ethynyl-1^6-methyl-1^7,1^8-dihydro-4-oxa-2-aza-1(2,8)-pyrido[2,3-d]pyrimidina-3(1,3)-benzenacyclooctaphan-1^7-one], 7.00 to 7.70; with `C#Cc1cc(=O)n2c3nc(ncc13)Nc1cccc(c1)OC[C@H]1CC[C@H](C1)C2` [Example 192, (5^1R,5^3S)-3^5-ethynyl-3^7,3^8-dihydro-7-oxa-2-aza-3(2,8)-pyrido[2,3-d]pyrimidina-1(1,3)-benzena-5(1,3)-cyclopentanacycloheptaphan-3^7-one], 6.00 to 7.00.

`C#Cc1cc(=O)n2c3nc(ncc13)Nc1cccc(c1)OCCCC2` [Example 193, 1^5-Ethynyl-1^7,1^8-dihydro-4-oxa-2-aza-1(2,8)-pyrido[2,3-d]pyrimidina-3(1,3)-benzenacyclooctaphan-1^7-one]: the pIC50 was 7.00 to 7.70. With `C#Cc1c(C)c(=O)n2c3nc(ncc13)Nc1ccc(N3CCN(C)CC3)c(c1)OCCCC2` [Example 194, 1^5-Ethynyl-1^6-methyl-3^4-(4-methylpiperazin-1-yl)-1^7,1^8-dihydro-4-oxa-2-aza-1(2,8)-pyrido [2,3-d]pyrimidina-3(1,3)-benzenacyclooctaphan-1^7-one] the figure was 7.00 to 7.70. With `C#Cc1cc(=O)n2c3nc(ncc13)Nc1cccc(c1)COC/C=C\C2` [Example 195, (Z)-1^5-ethynyl-1^7,1^8-dihydro-5-oxa-2-aza-1(2,8)-pyrido[2,3-d]pyrimidina-3(1,3)-benzenacyclononaphan-7-en-1^7-one] the figure was 7.00 to 7.70; with `C#Cc1cc(=O)n2c3nc(ncc13)Nc1ccc(N3CCN(C)CC3)c(c1)COCCC2` [Example 196, 1^5-Ethynyl-34-(4-methylpiperazin-1-yl)-1^7, 1^8-dihydro-5-oxa-2-aza-1(2,8)-pyrido[2,3-d]pyrimidina-3(1,3)-benzenacyclooctaphan-1^7-one], 4.30 to 6.00.

A word on the pIC50: it is −log10 of the IC50, conventionally taken in molar units.
